The whole screen tested about 110,000 compounds, of which about 230 (0.21%) showed an effect of 50% or more. The list shows a part of the results.
target: DPAP1 (Plasmodium falciparum, UniProt Q8IIJ9); experiment: primary screen, percent inhibition; read by cleavage of a fluorogenic dipeptide substrate; higher = more effect of the substance; design: species or system P. falciparum D10 trophozoite lysates; single well
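Also: 30 min substrate incubation versus DMSO and 10 µM JCP410 controls.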

Sequence of DPAP1 (Q8IIJ9 whole entry, looked up): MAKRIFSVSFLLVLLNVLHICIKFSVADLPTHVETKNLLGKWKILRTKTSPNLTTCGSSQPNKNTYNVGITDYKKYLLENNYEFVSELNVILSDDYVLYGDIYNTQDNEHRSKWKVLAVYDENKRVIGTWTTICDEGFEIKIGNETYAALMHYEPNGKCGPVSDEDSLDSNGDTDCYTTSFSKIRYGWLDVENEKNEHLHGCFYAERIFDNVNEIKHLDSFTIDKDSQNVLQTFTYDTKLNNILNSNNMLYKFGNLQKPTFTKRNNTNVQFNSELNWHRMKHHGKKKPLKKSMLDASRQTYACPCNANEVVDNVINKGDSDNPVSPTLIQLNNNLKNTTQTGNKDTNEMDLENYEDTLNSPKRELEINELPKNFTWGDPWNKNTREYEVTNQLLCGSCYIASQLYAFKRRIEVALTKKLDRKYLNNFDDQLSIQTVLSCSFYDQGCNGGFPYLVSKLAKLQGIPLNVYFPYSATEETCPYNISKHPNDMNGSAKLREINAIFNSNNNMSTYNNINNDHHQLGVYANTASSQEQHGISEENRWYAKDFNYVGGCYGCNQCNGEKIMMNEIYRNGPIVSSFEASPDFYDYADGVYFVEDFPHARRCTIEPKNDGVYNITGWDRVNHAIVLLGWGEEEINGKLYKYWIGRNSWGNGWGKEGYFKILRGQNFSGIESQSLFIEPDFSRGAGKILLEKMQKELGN

Point of comparison: O=C(O)c1cccc(NC(=O)c2ccc(-c3ccccc3)cc2)c1, “% Inhibition @ 10 uM” value 3.9%. Against it:
- Cc1nc2c3ccccc3nc(NCc3ccc4c(c3)OCO4)n2n1 — lower, 0.981%
- N=C1/C(=C/c2cccn2-c2ccc(Br)cc2)C(=O)N=C2SC=CN12 — lower, 1.9%
- Nc1nonc1-c1nc2ccccc2n1Cc1cc2c(cc1Cl)OCO2 — lower, -1.22%
- OC(CC#CCN1CCCCC1)(c1ccccc1)C1CCCCC1 (stereo not drawn) — lower, -7.7%
- CCCCOc1ccc(C(=O)/N=c2\sc(C(=O)OCC)c(C)n2C)cc1 — lower, -2.36%
- CC(Cc1ccccc1)NC(=O)CN1C(=O)c2ccccc2S1(=O)=O (stereo not drawn) — lower, -3.39%
- Cc1cc(NC(=O)CN(C)CCC#N)nc2c1c(=O)oc1ccccc12 — lower, -4.46%
- O=C(CN1CCN(Cc2ccccc2Cl)S1(=O)=O)NCc1ccccc1Cl — lower, -2.41%
- CCOc1ccc2nc(N3CCC(C(=O)N4CCN(c5ncccn5)CC4)CC3)sc2c1 — higher, 4.76%
- Cc1ccccc1S(=O)(=O)NC(=O)Nc1nc(-c2cccc(C(F)(F)F)c2)cs1 — lower, -2.5%
- Cc1cc(NC(=O)Nc2cc(C)nn2-c2ccccc2)n(-c2ccccc2)n1 — lower, 0.708%
- COc1ccc(S(=O)(=O)Nc2cc3sc(=O)oc3c3ccccc23)cc1 — lower, -4.43%
- O=C(CCc1nc2ncccc2c(=O)n1Cc1ccccc1)NCc1ccccc1Cl — lower, 0.953%
- Cc1nc2c(C)cccc2c(O)c1CN(C)C — lower, 1.64%
- C=CCN1CCOC(c2cccc(C(F)(F)F)c2)C1 (stereo not drawn) — lower, -4.48%
- O=C(NCc1ccco1)c1ccc(-c2ccccc2)cc1 — higher, 12.6%
- O=C(Cc1ccccc1)NC1CCCCC1NC(=O)Cc1ccccc1 (stereo not drawn) — lower, -3.59%
- Nc1nc(-c2ccccc2)cc(-c2ccccc2O)n1 — lower, 0.829%
- COCCNC(=O)C1CCCN(S(=O)(=O)c2cccc3nsnc23)C1 (stereo not drawn) — lower, -8.63%
- COCCN(CCOC)C(=O)c1sc2nc(-c3ccccc3)cn2c1C — lower, -5.58%
- CCOc1nc(Nc2ccccc2)nc(Nc2ccccc2)n1 — higher, 6.4%
- CCCCC12CN3CC(C)(CN(C1)C3c1cccc(C)c1)C2=O (stereo not drawn) — lower, -5.33%
- COCC(C)NC(C)Cc1ccccc1OC (stereo not drawn) — lower, -1.81%
- CC1=C(C(=O)Nc2ccc(C)cc2)C(c2ccc(F)cc2)NC(=O)N1 (stereo not drawn) — lower, -3.01%
- O=C(Nc1cc(Cl)ccc1C(=O)O)c1ccc(CN2C(=O)c3ccccc3C2=O)cc1 — lower, -0.68%
- Cc1nn(CCCC(=O)O)c(=O)c2cc3sccc3n12 — higher, 7.75%
- CNC(=O)CN(c1ccc(OC)cc1OC)S(=O)(=O)c1ccc(C)cc1 — lower, 3.17%
- CCOC(=O)C1=C(C)N(C2CCCCC2)C(=O)C1 — lower, -1.32%
- CCOC(=O)C1CCN(Cc2sccc2C)CC1 — lower, -0.127%
- Nc1nc2sc3c(c2c(C(F)(F)F)c1C(=O)NC12CC4CC(CC(C4)C1)C2)CCC3 — higher, 6.31%
- CN1C(N)=NC(=O)/C1=C/c1cc(O)ccc1Br — higher, 4.18%
- FC(F)(F)c1nn2cc(-c3ccccc3)nc2s1 — higher, 6.06%
- Cc1ccccc1NC(=O)CN1C(=O)S/C(=C/c2ccccc2)C1=O — lower, -3.25%
- O=C(O)c1cnc2cc(N3CCCCCC3)c(F)cc2c1O — lower, 3.65%
- CN1CCN(CCCNC(=O)c2ccc(CS(=O)(=O)Cc3ccc(Cl)cc3)o2)CC1 — lower, 2.05%
- COc1ccccc1N1CCN(C(=O)c2cccnc2Cl)CC1 — lower, -0.622%
- COc1ccc(-c2nnc3n2N=C(C(C)(C)C)CS3)cc1 — higher, 13.1%
- Cc1cc(OCC(O)CN(Cc2ccccc2)C(C)(C)C)ccc1[N+](=O)[O-] (stereo not drawn) — lower, 1.54%
- Clc1ccc(OCCCCCCN2CCOCC2)cc1 — lower, -2.12%
- NC(=O)c1cc2nc(-c3cccs3)cc(C(F)(F)F)n2n1 — lower, -3.27%
- Cc1ccc(NC(=O)CN2CCN(Cc3ccc4c(c3)OCO4)CC2)cc1 — lower, 1.89%
- CCN1CCC(C#N)(NC(=O)[C@H](Cc2c(F)cccc2F)NC(=O)c2ccc(-c3cc(C(=O)OC)ccc3Cl)cc2)CC1 — lower, 2.87%
- COc1ccc(N2CCN(S(=O)(=O)c3ccc(Br)cc3)CC2)cc1 — lower, 0.472%
- CN1CCN(Cc2cc(F)ccc2F)CC1 — lower, -0.817%
- Cc1ccccc1N1CC(C(=O)Nc2ccc3ccccc3c2)CC1=O (stereo not drawn) — lower, -2.78%
- COc1ccc(OC)c(NC(=O)c2c(NC(C)=O)sc3c2CCCCC3)c1 — lower, -2.09%
- Cc1cc(Br)ccc1NC(=O)CCc1ccccc1 — lower, 1.91%
- CCCCN(CC)CCNC(=O)Cn1nc(C)c2c(C)n(-c3ccccc3)nc2c1=O — lower, -0.665%
- COc1ccc(Cn2c(SCC(=O)NCc3ccco3)nc3ccsc3c2=O)cc1 — lower, 3.21%
- COC(=O)c1c(NC(=O)C(C)Oc2ccc(Cl)cc2Cl)sc(C)c1C (stereo not drawn) — higher, 22.8%
